About 2,200 (0.71%) of roughly 310,000 compounds showed an effect of 50% or more. The effect is printed as a negative number. The list shows a part of the results.
These molecules were tested against human ether-à-go-go-related gene (hERG) potassium channel (human, UniProt Q12809) (assay: primary screen, population patch clamp on CHO cells stably expressing hERG).
Chain of human ether-à-go-go-related gene (hERG) potassium channel (Q12809 whole entry, looked up): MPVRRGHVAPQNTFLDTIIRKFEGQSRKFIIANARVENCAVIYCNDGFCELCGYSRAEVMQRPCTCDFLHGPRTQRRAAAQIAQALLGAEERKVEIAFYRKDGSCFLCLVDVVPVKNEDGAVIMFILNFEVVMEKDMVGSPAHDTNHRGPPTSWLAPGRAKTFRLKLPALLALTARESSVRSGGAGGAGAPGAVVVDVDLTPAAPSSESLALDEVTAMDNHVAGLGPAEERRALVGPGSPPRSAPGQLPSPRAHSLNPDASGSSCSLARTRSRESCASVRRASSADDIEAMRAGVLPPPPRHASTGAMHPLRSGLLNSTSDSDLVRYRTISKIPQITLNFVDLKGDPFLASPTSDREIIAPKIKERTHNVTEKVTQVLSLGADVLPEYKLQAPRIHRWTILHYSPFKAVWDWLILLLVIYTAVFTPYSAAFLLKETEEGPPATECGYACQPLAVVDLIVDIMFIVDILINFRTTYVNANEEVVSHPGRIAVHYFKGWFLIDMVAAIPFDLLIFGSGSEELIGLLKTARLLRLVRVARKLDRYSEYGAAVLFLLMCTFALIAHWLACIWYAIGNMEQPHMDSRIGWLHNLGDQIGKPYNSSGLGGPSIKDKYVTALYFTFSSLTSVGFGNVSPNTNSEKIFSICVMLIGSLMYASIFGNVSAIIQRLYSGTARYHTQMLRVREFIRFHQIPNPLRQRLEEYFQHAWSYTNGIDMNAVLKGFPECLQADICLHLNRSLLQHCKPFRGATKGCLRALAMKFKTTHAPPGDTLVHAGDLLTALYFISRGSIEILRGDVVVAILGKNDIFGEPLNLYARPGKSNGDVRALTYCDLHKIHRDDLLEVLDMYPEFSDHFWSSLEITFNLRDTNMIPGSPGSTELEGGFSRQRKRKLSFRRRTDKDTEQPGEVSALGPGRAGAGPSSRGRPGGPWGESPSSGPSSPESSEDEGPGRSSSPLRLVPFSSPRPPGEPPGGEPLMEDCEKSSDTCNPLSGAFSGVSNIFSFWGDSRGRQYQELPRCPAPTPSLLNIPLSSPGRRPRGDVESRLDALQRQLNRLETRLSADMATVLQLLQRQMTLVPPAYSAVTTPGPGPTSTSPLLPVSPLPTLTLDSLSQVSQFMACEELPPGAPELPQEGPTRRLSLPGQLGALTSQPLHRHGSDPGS

Compared with `CCN(CC)Cc1c(O)ccc2c(=O)c(Oc3ccccc3OC)c(C)oc12`, `CCN(CC)C(=O)c1cn(-c2cccc(OC)c2)c(=O)c2ccccc12` is higher in “hERG current change (%, negative = inhibition) at 1uM” value: 6.55% for the first, 12.5% for the second.

Compared with `CCC(C(=O)NC1CCCC1)N(C(=O)Cn1nnc(-c2ccc(C)cc2)n1)C1CCCC1` (stereo not shown), `Cn1cc(C(=O)NC2CCCCCCC2)c(=O)c2cc(S(=O)(=O)N3CCCC3)ccc21` is higher in “hERG current change (%, negative = inhibition) at 1uM” value: 9.94% for the first, 19.6% for the second.

Compared with `CC(C)CNC(=O)c1cccc(C(=O)NCC(C)C)c1`, `Cc1cccc(OC(C)C(=O)OCC(=O)Nc2sccc2C(N)=O)c1` (stereo not shown) is higher in “hERG current change (%, negative = inhibition) at 1uM” value: 0.686% for the first, 1.82% for the second.

Compared with `CC(C)Cn1c(N2CCN(C(=O)/C=C/c3ccccc3)CC2)nc2ccccc21`, `O=C(c1ccc(NS(=O)(=O)c2ccc(F)cc2)cc1)N1CCN(c2ccccc2O)CC1` is higher in “hERG current change (%, negative = inhibition) at 1uM” value: -32.9% for the first, 10.8% for the second.

Compared with `CC(C(=O)NCc1ccccc1Cl)N1C(=O)c2ccccc2C1=O` (stereo not shown), `Cc1n[nH]c(=O)nc1NCc1ccccc1Cl` is lower in “hERG current change (%, negative = inhibition) at 1uM” value: 8.94% for the first, 6.98% for the second.

First: CCOC(=O)N1CCN(S(=O)(=O)N2CCCC(C(=O)NC(C)c3ccccc3)C2)CC1 (stereo not shown)
Second: CC(CC(=O)OCC(=O)Nc1ccc2[nH]c(=O)[nH]c2c1)c1ccccc1 (stereo not shown)
The “hERG current change (%, negative = inhibition) at 1uM” value of the first is higher: 17.6% for the first, 5.66% for the second.

First: CCOc1cc(/C=C(\C#N)C(N)=O)ccc1OCc1c(C)no[n+]1[O-]
Second: CCOc1ccc(C(=O)O/N=C(\N)c2ccccn2)cc1
The “hERG current change (%, negative = inhibition) at 1uM” value of the first is lower: 14.1% for the first, 17.6% for the second.

Compared with `CCCCCCNC(=O)c1cn(CC)c2cc(N3CCN(C)CC3)c(F)cc2c1=O`, `CN1CCN(c2ccc([N+](=O)[O-])c(Sc3nncn3C)c2)CC1` is lower in “hERG current change (%, negative = inhibition) at 1uM” value: 13.3% for the first, -4.09% for the second.

Going from `CCCOc1ccc(C(=O)Nc2ccc(N(C)C)cc2)cc1` to `CN(CC(=O)Nc1ccc(Cl)cc1)CC(=O)Nc1cc(Cl)ccc1C#N`, the “hERG current change (%, negative = inhibition) at 1uM” value falls from 9.76% to 3.23%.

First: C=CCn1c(=O)c(C(C)=O)cn(N(C)c2ncc(C(F)(F)F)cc2Cl)c1=O
Second: COCCNC(=O)CCSc1nc(-c2ccc(OC)cc2)cc(C(F)(F)F)n1
The “hERG current change (%, negative = inhibition) at 1uM” value of the first is lower: 10.5% for the first, 12% for the second.

Going from `COc1ccc(-c2nc(-c3ccncc3)no2)cc1OC` to `COc1cc(NC(=O)c2cc3c(C)nc4ccccc4c3o2)cc(OC)c1OC`, the “hERG current change (%, negative = inhibition) at 1uM” value rises from -1.49% to 7.87%.

First: O=C1C(Nc2ccccc2)=C(NS(=O)(=O)c2ccccc2)C(=O)c2ccccc21
Second: CC(OC(=O)c1ccc(NS(=O)(=O)c2ccc3[nH]c(=O)[nH]c3c2)cc1)C(=O)Nc1cccc(Cl)c1Cl (stereo not shown)
The “hERG current change (%, negative = inhibition) at 1uM” value of the first is higher: 4.84% for the first, 4.72% for the second.

Compared with `C/C(=N\NC(=O)c1cccc(N/N=C(\C)c2cc(O)ccc2O)c1)c1cc(O)ccc1O`, `CN(CC(=O)Nc1cccc(F)c1)CC(=O)Nc1ccc(Cl)cc1[N+](=O)[O-]` is higher in “hERG current change (%, negative = inhibition) at 1uM” value: 3.67% for the first, 3.8% for the second.

Going from `CCNc1nc(NCC)nc(NS(=O)(=O)c2ccc(N)cc2)n1` to `Cc1ccc(S(=O)(=O)Nc2nc(C)c(NC(=O)OCCCl)s2)cc1`, the “hERG current change (%, negative = inhibition) at 1uM” value falls from 18.6% to -2.38%.

Compared with `COCc1nnc(NC(=O)C(C)C)s1`, `COc1ccc(CNC(=O)C(c2ccc(C)o2)N(C(=O)c2csnn2)c2ccc(C(C)C)cc2)cc1` (stereo not shown) is lower in “hERG current change (%, negative = inhibition) at 1uM” value: 14.8% for the first, -0.505% for the second.

Going from `O=C(Nc1ncc([N+](=O)[O-])s1)c1ccco1` to `O=C(Nc1ncc2c(n1)CC(c1ccco1)CC2=O)c1ccc(Cl)cc1` (stereo not shown), the “hERG current change (%, negative = inhibition) at 1uM” value falls from 17% to 0.855%.

First: Cc1c(N=C2SCC(=O)N2c2c(C)n(C)n(-c3ccccc3)c2=O)c(=O)n(-c2ccccc2)n1C
Second: CCOC(=O)c1ccccc1NC(=O)c1n[nH]c(=O)c2ccccc12
The “hERG current change (%, negative = inhibition) at 1uM” value of the first is higher: 3.49% for the first, 3.01% for the second.

First: CCOC(=O)c1c(NC(=O)COc2cccc3c2CCN(CC)C3=O)sc2c1CCC2
Second: CCCNC(=O)CN1C(=O)c2ccccc2Sc2ncccc21
The “hERG current change (%, negative = inhibition) at 1uM” value of the first is higher: 10.4% for the first, 5.72% for the second.

Going from `O=C(CSc1ccc(Cl)cc1)NCc1ccncc1` to `CC1(O)CC(c2ccc(Cl)cc2)=NN1C(=O)c1ccc([N+](=O)[O-])cc1` (stereo not shown), the “hERG current change (%, negative = inhibition) at 1uM” value rises from -2.62% to 17.6%.

First: Cc1nc2sccc2c(=O)n1-c1ccccc1Cl
Second: Cc1cc(C)cc(NS(=O)(=O)Cc2ccccc2)c1
The “hERG current change (%, negative = inhibition) at 1uM” value of the first is higher: 16.2% for the first, 11.9% for the second.

First: COc1ccc(NS(=O)(=O)c2ccc(S(=O)(=O)N3CCOCC3)cc2)cc1
Second: Cc1ccc2nc(-c3cccc(S(=O)(=O)N4CC(C)OC(C)C4)c3)cn2c1 (stereo not shown)
The “hERG current change (%, negative = inhibition) at 1uM” value of the first is lower: -6.19% for the first, 8.62% for the second.

For `CN(CC(=O)OCC(=O)NC(=O)c1cccn1C)S(=O)(=O)c1ccc(Cl)cc1`, the “hERG current change (%, negative = inhibition) at 1uM” value was 13.4%.

From article PMC4336329 (PLoS ONE, 2015)
